# Laboratory results as given in PubChem BioAssay AID624296 (National Center for Advancing Translational Sciences (NCATS), 2012).
# The whole screen tested about 350,000 compounds, of which about 9,900 (2.8%) were called active. This list was built around the results that the source calls inconclusive (neither active nor inactive); the mix of calls is not that of the screen. The call rests on the fitted dose curve; in most records, active means well fitted activation curve with a large enough effect; inconclusive means small, poorly fitted or top-dose-only effect; inactive means no such curve, though single readings can be large or run the other way. No potency is given beside an inconclusive call; the fits are too rough.
# Experiment: A quantitative high throughput screen for small molecules that induce DNA re-replication in MCF 10a normal breast cells. Further: nearly all actives have a fitted effect of over 50% in size. On activity, positive = re-replication: % of control where 0% means no effect.
# Settings: MCF 10A DNA re-replication, Hoechst nuclear intensity, 48 h; activity, positive = re-replication: at 46.1 µM (top of the series)
# Potency means the concentration at half of the fitted maximal effect; tags describe the fitted curve by direction and shape.
Compound,Potency,"activity, positive = re-replication"
CCn1c(=O)c2c(nc3n2CCN3c2ccccc2)n(C)c1=O,inactive,–
Cc1cc(C)cc(NS(=O)(=O)c2ccc(-c3cnc(C4CC4)o3)cc2)c1,"inconclusive [activator, full curve, poor fit]",–
CCCOc1ccc2c3c(c(=O)oc2c1OCCC)CCCC3,inactive,–
C/C(CC(=O)Nc1cccc(C(F)(F)F)c1)=N\NC(=O)Cc1ccccc1,inactive,–
NNC(=O)c1csc(-c2cccc(C(F)(F)F)c2)n1,"inconclusive [activator, single point]",–
CCOc1ccccc1-n1c(SCC(=O)N2CCCc3ccccc32)nnc1-c1cccnc1,"inconclusive [activator, partial curve, poor fit]",–
COc1cc2c(cc1NCc1ccccn1)oc1ccccc12,active: 23.1 µM,–
Oc1ccc(N2CCN(Cc3ccc(OCCCN4CCCCC4)cc3)CC2)cc1,"inconclusive [activator, single point]",–
Cc1ccc(NC(=O)c2ccc(=O)n(CC(=O)Nc3c(C)cc(C)cc3C)n2)cc1,"inconclusive [activator, partial curve, poor fit]",–
O=C1/C(=C/c2cccc([N+](=O)[O-])c2)Oc2cc(O)ccc21,"inconclusive [activator, single point]",–
CC(CCN1CCC(n2nccc2NC(=O)c2ccccc2Cl)CC1)c1ccccc1 (stereo not given),inactive,–
CCOc1nc(-c2ccc(C)cc2)ccc1-c1noc(COC)n1,"inconclusive [activator, single point]",–
COc1cc(/C=C2\COC/C(=C\c3ccc(O)c(OC)c3)C2=O)ccc1O,active: 5.8 µM,–
CC(OC(=O)c1ccc(-c2ccc(O)cc2)cc1)C(=O)NC1CCCCC1C (stereo not given),inactive,–
COCCCNC(=S)NC(=O)c1ccccc1,"inconclusive [activator, single point]",–
CCc1cccc(C)c1NC(=O)CSc1nc2ccc(N3C(=O)c4ccccc4C3=O)cc2s1,"inconclusive [activator, partial curve]",–
O=C(O)c1cccc(NC(=O)c2cn(-c3ccccc3)nc2-c2ccc(F)cc2)c1,–,inconclusive: 44.9% [activator]
CN(CC(=O)Nc1ccccc1C(F)(F)F)C(=O)c1cc(Cl)nc2ccccc12,"inconclusive [activator, partial curve, poor fit]",–
Cc1ccc(S(=O)(=O)N2[C@@H](c3cccc4ccccc34)C(C(=O)O)=C[C@H]2C(C)(C)C)cc1,inactive,–
CC(C)(C)c1ccc(/C=N/Nc2nncn2N)cc1,active: 11.6 µM,–
Cc1cc(C)c2[nH]c(O)c(N=NC(=S)NCC3CCCO3)c2c1 (stereo not given),inactive,–
O=C(N/N=C/C=C/c1cccc([N+](=O)[O-])c1)c1ccncc1,inactive,–
C[C@@H]1CC[C@]2(C(=O)O)CC[C@]3(C)C(=CCC4[C@@]5(C)CC[C@H](O)[C@@](C)(C(=O)O)C5CC[C@]43C)C2[C@]1(C)O (stereo not given in full),inactive,–
O=c1[nH]c(=O)n(Cc2ccccc2)c2nc(-c3ccc(Oc4ccc(F)cc4)c([N+](=O)[O-])c3)n(CCO)c12,"inconclusive [activator, single point]",–

Compound,Potency,"activity, positive = re-replication"
CCCCCCn1c(N2CCC(C)CC2)nc2c1c(=O)[nH]c(=O)n2C,"inconclusive [activator, partial curve, poor fit]",–
CCCCN(C)C(=O)C1CCN(Cc2ccc(OCc3ccccc3)cc2)CC1,"inconclusive [activator, single point]",–
COc1cc(/C=N/NC(=S)NC2CC3CC2C2C=CCC32)ccc1O (stereo not given),inactive,–
Clc1ccc(-c2csc3ncnc(Cl)c23)cc1,active: 18.4 µM,–
Cc1ccc(CNC(=O)CN(c2cccc([N+](=O)[O-])c2)S(=O)(=O)c2ccccc2)cc1,inactive,–
COc1cccc(/C=C2/CN(C)CC3=C2OC(N)=C(C#N)C3c2cccc(OC)c2)c1 (stereo not given),"inconclusive [activator, single point]",–
COc1ccc(CN2CCOCC2)cc1Br,inactive,–
COc1ccc(NC(=O)Cn2nnc(-c3ccccc3NC(=O)c3cccs3)n2)cc1,active: 14.6 µM,–
O=C1NC(=S)S/C1=C/c1ccc(N2CCOCC2)o1,"inconclusive [activator, single point]",–
NS(=O)(=O)c1ccc(N/N=C/c2ccccn2)c([N+](=O)[O-])c1,"inconclusive [activator, single point]",–
COc1ccc(-c2csc(NC(=O)C3CC(=O)N(Cc4ccccc4)C3)n2)cc1OC (stereo not given),"inconclusive [activator, single point]",–
Cc1ccc(N2C(N)=C(C#N)C(c3cccnc3)C3=C2CCCC3=O)cc1 (stereo not given),inactive,–
CC(C)Oc1ccc(N2CC(C(=O)NC3=NCCS3)CC2=O)cc1 (stereo not given),"inconclusive [activator, partial curve, poor fit]",–
COc1cc(-c2c(-c3ccc4c(c3)OCO4)noc2-c2ccsc2)ccc1F,"inconclusive [activator, partial curve]",–
C=C1CCC2[C@](C)(CO)C(O)CC[C@]2(C)C1C/C=C1/C(=O)OCC1O (stereo not given in full),"inconclusive [activator, single point]",–
CCCCSc1nnc(CCNC(=O)OC(C)(C)C)o1,"inconclusive [activator, full curve, poor fit]",–
CC(=O)CSc1nnc2c3ccccc3nc(C(C)(C)C)n12,"inconclusive [activator, full curve, poor fit]",–
Cc1ccc(Oc2nc3c(C)cccn3c(=O)c2/C=C(\C#N)C(N)=O)cc1,"inconclusive [activator, full curve, poor fit]",–
COc1cc(/C=N/O)ccc1OCc1ccccc1Cl,inactive,–
COc1cccc(-c2cc(C(F)(F)F)n3nc(N)nc3n2)c1,"inconclusive [activator, partial curve, poor fit]",–
Cc1[nH]n(-c2ccccc2)c(=O)c1C(C[N+](=O)[O-])c1ccc(Br)cc1 (stereo not given),active: 3.26 µM,–
O=C(CCS(=O)(=O)c1ccccc1)Nc1nc(-c2ccccn2)cs1,"inconclusive [activator, single point]",–
C/C(=N/Nc1nc(-c2ccc(Cl)cc2)cs1)c1cccs1,"inconclusive [activator, partial curve, poor fit]",–
c1csc(-c2nn3c(C4COc5ccccc5O4)nnc3s2)c1 (stereo not given),"inconclusive [activator, single point]",–

Compound,Potency,"activity, positive = re-replication"
CCOC(CC(=O)NNC(=O)c1c(-c2ccccc2Cl)noc1C)OCC,inactive,–
O=C(OCCN(C1=NS(=O)(=O)c2ccccc21)c1ccccc1Cl)c1ccc(Cl)cc1,inactive,–
O=S(=O)(Nc1ccc2ccccc2n1)c1ccccc1,inactive,–
O=C1c2ccccc2CC1(Cc1ccccc1)Cc1ccccc1,"inconclusive [activator, single point]",–
Cc1cc(SCC(=O)OCC(=O)N(C)c2ccccc2)nc2ccccc12,"inconclusive [activator, full curve, poor fit]",–
COC(=O)c1nnn(CC(=O)NC(=O)Nc2ccccc2)c1C(=O)OC,"inconclusive [activator, single point]",–
O=C(Nc1cccc(-c2cscn2)c1)C1CCN(Cc2ccc(CO)o2)CC1,inactive,–
COc1cc2ncc(S(=O)(=O)c3ccccc3)c(N3CCCC(C)C3)c2cc1OC (stereo not given),"inconclusive [activator, single point]",–
O=C(NC(=S)N1CCN(c2c(Cl)cccc2[N+](=O)[O-])CC1)c1cccs1,"inconclusive [activator, single point]",–
CC(=O)c1c(C)[nH]c(C(=O)OCC(=O)N(Cc2ccccc2)C(C)(C)C)c1C,"inconclusive [activator, single point]",–
O=C(C[C@H]1C/C=C\CC[C@H](Cc2ccc(F)cc2)C(=O)O[C@@H](c2ccccc2)CNC1=O)N[C@H](CO)Cc1ccccc1,"inconclusive [activator, single point]",–
COc1ccc(C(=O)Nc2nnc(SCC(=O)NCc3ccco3)s2)c(OC)c1,inactive,–
CC(Oc1cc(F)ccc1[N+](=O)[O-])C(=O)Nc1ccc(S(=O)(=O)N2CCCC2)cc1 (stereo not given),active: 20.6 µM,–
CC(c1ccccc1)n1c(-c2ccc(C(C)(C)C)cc2)n[nH]c1=S (stereo not given),"inconclusive [activator, single point]",–
CN(C)CCCn1c(SCC(=O)N2c3ccccc3Sc3ccccc32)nc2ccccc2c1=O,"inconclusive [activator, single point]",–
CN(C)CC1CC/C(=C\c2ccc(O)cc2)C1=O (stereo not given),active: 3.26 µM,–
CC1=C(O)C(=O)C(C2=C(O)C(=O)C(C)=C(O)C2=O)=C(O)C1=O,inactive,–
C/C(=N\Nc1ccc(Cl)cc1)c1c(O)cc(C)oc1=O,"inconclusive [activator, partial curve, poor fit]",–
COc1ccc(S(=O)(=O)N(C)c2ccc(C(=O)Nc3cccnc3)cc2)cc1,inactive,–
CC(=NNC(=S)N1CCCCC1)c1cccc(C)n1,"inconclusive [activator, full curve, poor fit]",–
O=C(Nc1ccc([N+](=O)[O-])cc1)Nc1ccc([N+](=O)[O-])cc1,inactive,–
CNC(=S)N(CCc1c(C)[nH]c2ccc(Cl)cc12)Cc1cccnc1,inactive,–
